In PMC6919601, “Identification of Plasmodium dipeptidyl aminopeptidase allosteric inhibitors by high throughput screening” (PLoS ONE, 2019):
Hit rate of the full screen: of about 110,000 compounds, about 230 (0.21%) showed an effect of 50% or more. This is one part of the list.

target: DPAP1 (Plasmodium falciparum, UniProt Q8IIJ9); assay: primary screen, percent inhibition; read by cleavage of a fluorogenic dipeptide substrate; higher = more effect of the substance; parameters: species or system P. falciparum D10 trophozoite lysates; single well
Sequence (Q8IIJ9 whole entry, looked up): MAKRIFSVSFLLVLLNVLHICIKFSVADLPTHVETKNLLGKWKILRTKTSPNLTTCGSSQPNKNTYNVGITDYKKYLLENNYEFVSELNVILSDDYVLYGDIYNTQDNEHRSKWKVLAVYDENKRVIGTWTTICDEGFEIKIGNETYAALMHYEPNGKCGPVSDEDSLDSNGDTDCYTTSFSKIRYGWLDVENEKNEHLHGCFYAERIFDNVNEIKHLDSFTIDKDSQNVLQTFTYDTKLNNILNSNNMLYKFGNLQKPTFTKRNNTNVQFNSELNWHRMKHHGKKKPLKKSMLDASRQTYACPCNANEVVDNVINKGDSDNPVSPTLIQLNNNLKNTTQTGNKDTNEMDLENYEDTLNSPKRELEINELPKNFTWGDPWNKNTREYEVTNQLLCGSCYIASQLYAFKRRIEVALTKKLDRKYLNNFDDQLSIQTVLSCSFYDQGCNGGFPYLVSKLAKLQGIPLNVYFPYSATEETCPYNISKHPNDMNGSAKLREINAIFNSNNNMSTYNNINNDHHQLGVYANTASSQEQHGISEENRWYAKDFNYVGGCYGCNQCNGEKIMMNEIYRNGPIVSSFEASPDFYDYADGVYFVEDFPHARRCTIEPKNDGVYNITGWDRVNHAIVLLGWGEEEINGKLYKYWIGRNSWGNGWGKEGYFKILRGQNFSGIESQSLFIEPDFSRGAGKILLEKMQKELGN
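Further: 30 min substrate incubation versus DMSO and 10 µM JCP410 controls.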

Structure (SMILES) | % Inhibition @ 10 uM
CC(=O)c1cccc(NC(=O)CCCC(=O)Nc2cccc(C(C)=O)c2)c1 | 4.3%
COc1ccccc1C(=O)Nc1cccc(F)c1 | -5.29%
CCC(C(=O)N1CCN(c2cccc(Cl)c2)CC1)c1ccccc1 (stereo not drawn) | -4.72%
O=C(Nc1ccccc1O)c1ccc(Cl)c(S(=O)(=O)N2CCOCC2)c1 | -1.02%
O=C(c1cc2ccccc2oc1=O)N(Cc1ccccc1)c1ccccn1 | -8.82%
CCOC(=O)C1CCCCN1Cc1ccc(Br)s1 (stereo not drawn) | -0.294%
CCc1ccc(/C=C2/SC(N3CCCCC3)=NC2=O)cc1 | 1.57%
CCOC(=O)c1ccc(/C=C/c2ccccn2)cc1 | -1.11%
COc1ccc2c(c1)CC/C(=C/c1ccc(OC)c(OC)c1OC)C2=O | 1.07%
COc1ccc(CC/N=C2\CC(C)(C)CC(O)=C2C(=O)Cc2ccccc2)cc1OC | -5.15%
Cc1cc(NS(=O)(=O)c2ccc(NC(=O)c3cc(-c4ccc(C)o4)nc4ccccc34)cc2)no1 | -0.469%
COc1ccc(C2=N/C(=C\c3ccco3)C(=O)O2)cc1OC | 6.11%
CCCCNc1nc2c(S(=O)(=O)c3ccccc3)nnn2c2ccsc12 | 4.84%
CCOc1ccc(NC(=O)c2cc(C)cc(C)c2)c([N+](=O)[O-])c1 | -2.15%
Cc1cccc(OCC(=O)NCc2ccc(F)cc2)c1C | -4.56%
CCN1CCN(c2c(S(=O)(=O)c3ccc(C)cc3)cnc3ccc(Cl)cc23)CC1 | -9.11%
CCN1C(=O)/C(=C\c2ccc(OC)c(OC)c2)S/C1=N/c1ccccc1 | -1.57%
CCN(Cc1ccccc1)C(=O)CCc1nc(-c2ccc(C)cc2)no1 | -2.8%
COCCN1C(=O)c2ccccc2C(C(=O)N2CC(C)CC(C)C2)C1c1cccs1 (stereo not drawn) | 1.64%
O=C(CCc1ccccc1)n1nc(-c2ccc(Cl)cc2)nc1NCc1ccco1 | 3.93%
CC1(C)CC(OC(=O)c2ccccc2)CC(C)(C)N1 | 3.03%
O=C(NCCCCc1ccccc1)c1cccs1 | -2.36%
CCOC(=O)N1CCC(NCc2c(C(=O)O)c(C)n(Cc3ccccc3C)c2C)CC1 | -0.23%
Cc1nn(C(=O)Cc2ccc(Cl)cc2)c(C)c1Br | -0.597%
C=CCN1C(=O)/C(=C/c2ccco2)C(=O)NC1=S | 3.03%
Cc1ccc(Cn2nnc3c(=O)n(CC(=O)N4CCCC4)cnc32)cc1 | -2.16%

Structure (SMILES) | % Inhibition @ 10 uM
FC(F)(F)c1ccc(-c2noc(/C=C/c3ccccc3)n2)cc1 | 2.62%
CCCC(=O)C1=C(NC(C)C)CC(C)(C)CC1=O | -1.59%
O=C(c1cccc(Cl)c1)N1CCN(C/C=C/c2ccccc2)CC1 | 2.78%
Cc1ccc(S(=O)(=O)NCC(=O)N2CCN(c3cccc(Cl)c3)CC2)cc1 | 0.161%
CCC(=O)N1C(C(=O)NCc2ccc3c(c2)OCO3)CSC12CCN(C)CC2 (stereo not drawn) | -0.128%
COc1cc(C2C(C#N)=C(N)Oc3c2cc(Cl)c2ccccc32)cc(OC)c1OC (stereo not drawn) | 6.13%
COc1ccc(CCN(Cc2ccccn2)S(=O)(=O)c2ccc(Cl)cc2)cc1OC | 8.2%
O=C1NC(=O)C(=Cc2cccn2-c2ccc([N+](=O)[O-])cc2)C(=O)N1 | -6.29%
O=C(NCc1ccc2c(c1)OCO2)C1CCCN(c2ncnc3c2nc2n3CCCCC2)C1 (stereo not drawn) | 4.83%
O=C(NCCOC12CC3CC(CC(C3)C1)C2)c1nc(-c2cccnc2)no1 | -0.788%
O=C(NCc1cccnc1)C(Cc1ccccc1)NS(=O)(=O)c1cccc2nsnc12 (stereo not drawn) | 2%
COc1ccc(NC(=O)c2cc(CC(C)C)oc2C)cc1 | 5.09%
CCCc1cc(O)n2nc(C(F)(F)F)nc2n1 | -6.71%
COc1ccc(C(=O)C2=C(O)C(=O)N(CCN(C)C)C2c2ccccc2F)cc1 (stereo not drawn) | 0.487%
COc1ccc(N(CC(=O)Nc2cccc(Br)c2)S(C)(=O)=O)c(OC)c1 | 2.02%
COc1cc(/C=C2/C(=N)N3N=C(c4ccccc4C)SC3=NC2=O)ccc1O | 0.484%
CC(CCN1CCOCC1)c1ccccc1 (stereo not drawn) | 6.06%
Brc1ccc2c(c1)CNc1cccnc1O2 | 3.24%
Cc1cccnc1NC(=O)Nc1cccs1 | -3.1%
O=C(O)C1C2CCC(O2)C1C(=O)NCc1cccs1 (stereo not drawn) | -2.68%
Cn1cccc1/C=C1\SC(=O)N(CC(=O)Nc2ccc(Cl)cc2)C1=O | 7.87%
CCc1nc2ccc(C(=O)NCc3cccc(C)c3)cc2nc1CC | 4.38%
c1ccc(Nc2nc(N3CCOCC3)nc(N3CCOCC3)n2)cc1 | -0.902%
COc1cc(Br)ccc1C1/C(=C(\O)OC2CCCCC2)C(C)=Nc2ncnn21 (stereo not drawn) | -5.33%
N#Cc1cc2c(=O)n3ccccc3nc2n(C2CCS(=O)(=O)C2)c1=O (stereo not drawn) | -0.551%
